# Test results as given in the supplement of paper PMC12217912.
# The list shows a part of the results. Sequences were assembled here from the parent chain. Values near 0.05 are background.
# B1: TEV protease; numbered along this chain (parent)
# chain: MGESLFKGPRDYNPISSSICHLTNESDGHTTSLYGIGFGPFIITNKHLFRRNNGTLVVQSLHGVFKVKDTTTLQQHLVDGRDMIIIRMPKDFPPFPQKLKFREPQREERICLVTTNFQTKSMSSMVSDTSCTFPSGDGIFWKHWIQTKDGQCGSPLVSTRDGFIVGIHSASNFTNTNNYFTSVPKNFMELLTNQEAQQWVSGWRLNADSVLWGGHKVFMVKPEEPFQPVKEATQL
# Variants of: B1
# Assay: raw area under fraction-flipped curve 0-4 h after induction (AUC4h, not background-subtracted), DNA-recorder readout of cleavage of the substrate (dimensionless); higher = more cleavage of the substrate by the protease variant
# Details: temperature: 34 °C; time window: 0-4 h after rhamnose induction
# Description: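 In vivo DNA recorder in E. coli TOP10(DE3) ΔrhaA at 34 °C. Each TEVp single-site mutant (parent TEVp 0) is paired with a single-site variant of the 7-mer TEVs (canonical ENLYFQ|S). The substrate sits between flexible linkers in a Bxb1-sfGFP-TEVs-SsrA fusion, so cleavage stabilises Bxb1 and speeds flipping of a recombination array, read by NGS. The value is the raw area under the fraction-flipped curve over 0-4 h after rhamnose induction (AUC4h), with ≥20 reads per time point. It is not background-subtracted; inactive controls average about 0.047.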
# 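Note: Bxb1 expression induced with 0.2% (w/v) L-rhamnose at OD600 near 0.5, cultures sampled hourly, flipped fraction per protease–substrate barcode pair counted by paired-end Illumina sequencing.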
Variant,area with substrate ECLYFQS,area with substrate EELYFQS,area with substrate EGLYFQS,area with substrate EQLYFQS,area with substrate ERLYFQS,area with substrate ESLYFQS,area with substrate EVLYFQS,area with substrate EWLYFQS,area with substrate EDLYFQS,area with substrate EFLYFQS,area with substrate EHLYFQS,area with substrate EILYFQS,area with substrate EKLYFQS,area with substrate ELLYFQS,area with substrate EMLYFQS,area with substrate EPLYFQS,area with substrate ETLYFQS,area with substrate EYLYFQS
G162A,0.1,0.125,0.0829,0.108,0.114,0.101,0.104,0.0805,,,,,,,,,,
I164M,0.0685,0.0882,0.0743,0.0783,0.0675,0.0787,0.0772,,0.0736,0.0897,0.0614,0.0787,0.082,0.0677,0.0736,0.0984,0.0908,0.0818
I164N,0.054,,,0.048,0.0593,0.0447,,,0.0559,0.0569,,0.0304,,0.0664,,0.0374,,
V165A,0.0569,,0.0449,,,0.0551,0.0249,0.0698,0.0458,,0.0313,,0.0816,,0.0473,,,
V165G,0.0698,0.0527,0.0696,0.0529,0.0525,0.0471,0.0593,,,,,0.0506,0.0597,0.0546,0.0538,0.0663,,
G166I,0.0413,0.0405,0.0486,0.0625,0.0583,0.0539,0.0471,,0.0695,0.0573,,0.0379,0.0218,,0.0473,,0.0543,0.0619
G166L,0.0269,0.0505,0.047,0.0425,,0.0481,0.0518,0.0409,0.0478,,,,0.039,,0.0608,,,
I167S,0.0651,0.0672,0.0735,0.0741,0.0728,0.0739,0.0711,0.0648,,0.0768,0.0672,0.0665,0.0511,,0.0616,0.0648,0.0669,0.114
I167Y,0.0732,,,,0.0746,,,0.0666,0.0911,0.0544,,0.0477,0.0755,0.0514,,,,0.0864
S171V,0.0788,,0.0489,,0.0549,0.0621,0.0737,,,,,,0.066,0.0872,,0.0773,0.0606,0.0774
N172E,0.0738,,,0.055,,0.0678,0.0632,,,,,0.0634,,,,,,
F173M,0.112,,,,0.0935,,,0.121,0.12,,0.126,0.155,0.111,,0.13,,,
T174P,0.105,0.115,0.0679,0.0663,0.0686,0.0768,,,0.0951,,0.0765,0.0733,,,,,,
N175E,0.106,,,0.0778,0.0725,,0.0747,,,,,,0.0738,0.04,,0.0923,,
N175R,0.109,,,,0.0722,0.13,,,,0.0946,0.142,,0.0931,,,,,0.106
T176A,0.105,,,0.0677,0.0651,0.074,,0.0475,,,,0.0801,,0.0707,0.0914,,,0.058
Y179K,0.066,,0.0583,0.0596,0.0668,0.0569,0.061,,,,,,0.0501,,,,,

Variant,area with substrate ECLYFQS,area with substrate EELYFQS,area with substrate EGLYFQS,area with substrate EQLYFQS,area with substrate ERLYFQS,area with substrate ESLYFQS,area with substrate EVLYFQS,area with substrate EWLYFQS,area with substrate EDLYFQS,area with substrate EFLYFQS,area with substrate EHLYFQS,area with substrate EILYFQS,area with substrate EKLYFQS,area with substrate ELLYFQS,area with substrate EMLYFQS,area with substrate EPLYFQS,area with substrate ETLYFQS,area with substrate EYLYFQS
F180E,0.0471,,0.0541,0.0561,0.0297,0.0534,,0.0618,,0.0613,,,0.0431,0.0483,,0.0516,0.0672,
F180G,0.0903,0.0953,,0.0585,0.0617,0.0658,0.0702,0.0823,,,0.0713,0.0602,0.0472,0.0579,0.0717,0.0816,,
F180W,0.0804,0.0706,0.0626,0.0886,,0.0837,0.0918,,,,0.0713,0.0723,0.0496,0.0744,,0.0929,,
T181P,0.0412,,,,,0.0554,0.0535,0.0394,,0.0597,0.0669,0.0503,,,0.0552,,,
S182K,0.0737,,0.0486,0.0745,0.0759,0.0627,0.0699,,0.044,0.0792,,0.0765,0.0666,0.0752,0.0699,,0.0854,
S182N,0.0702,0.0509,,0.0858,0.0805,0.0748,0.0863,0.0999,0.0883,,0.0953,0.0694,0.0812,,,0.0951,,0.0705
V183L,0.0705,,,0.0603,,,,0.0553,,,,,0.0885,0.0699,0.12,0.107,,
V183N,0.07,0.116,,0.0818,0.106,0.0907,0.0973,0.0975,,,0.0793,0.0811,,,,0.104,0.134,
V183R,0.0681,0.0921,,,0.0543,0.0606,0.046,,,,,,0.0641,0.0336,0.0514,,,
P184M,0.0832,,,0.0727,0.0691,0.0497,0.0717,,0.0932,0.0859,,0.0556,,0.0694,0.0792,0.0499,0.0899,
N186P,0.0595,,0.0653,,,0.0706,0.054,0.083,0.112,0.0837,,,0.0844,,,,,
M188E,0.109,,0.0811,,0.0373,,0.0325,,,,0.0884,0.0993,0.116,,,0.0977,,0.117
M188W,0.111,0.109,0.0834,0.115,0.115,0.0906,0.0827,0.101,,,0.112,0.0958,0.104,0.0816,0.166,0.0996,,
E189M,0.102,0.113,0.0769,0.133,0.101,0.0888,0.0626,0.0866,,,0.102,0.0884,0.107,0.0904,,0.0904,,
L190H,0.0976,0.0777,0.114,,,0.0934,0.0903,0.0987,,,,0.0699,,0.0982,0.114,,0.0891,0.117
L190R,0.109,,,0.118,0.0854,0.0845,0.0831,0.0869,,,,0.0692,,0.102,0.136,,0.0874,0.103
